Source: PubChem BioAssay AID1454 (National Center for Advancing Translational Sciences (NCATS), 2008)
Hit rate of the full screen: of about 130,000 compounds, about 550 (0.42%) were called active. Inconclusive means that the source gave no clear call. Such entries were picked first, then a sample of the others. The call rests on the fitted dose curve; in most records, active means well fitted inhibition curve with a large enough effect; inconclusive means small, poorly fitted or top-dose-only effect, or effect the other way; inactive means flat fitted curve, though single readings scatter. Potencies of inconclusive entries are left out as doubtful fits.

Assay: qHTS Assay for Inhibitors of the ERK Signaling Pathway using a Homogeneous Screening Assay; Stimulation with EGF; further: nearly all actives have a fitted effect of over 55% in size;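 on activity change, negative = inhibition: plate controls were stimulated vehicle wells for no effect and unstimulated vehicle basal for full effect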
Details: HEK293-V1b, EGF-stimulated phospho-ERK AlphaScreen; activity change, negative = inhibition: at the top concentration
Method in brief: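 EGF-stimulated (25 nM, 5 min) phospho-ERK in HEK293 cells stably expressing V1b, cells pretreated 30 min with compound at 37C. Homogeneous AlphaScreen read on lysates.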
Potency means the concentration at half of the fitted maximal effect; tags describe the fitted curve by direction and shape.

| Structure (SMILES) | Potency | activity change, negative = inhibition |
| --- | --- | --- |
| CCC(=O)OC1CCC2C3CCc4cc(O)ccc4C3CC[C@]12C (stereo not given in full) | inconclusive [inhibitor, single point] | – |
| Cc1ccsc1C(=O)C1CCCN(Cc2cn(C)nc2C)C1 (stereo not given) | inconclusive [inhibitor, single point] | – |
| Oc1ccc2c3c1O[C@H]1c4oc5ccccc5c4C[C@]4(O)[C@H](C2)N(CC2CC2)CC[C@@]314 | – | inactive: 1.9% |
| O=[N+]([O-])c1cccc(CN2CCN(Cc3ccc(Br)cc3)CC2)c1 | inconclusive [inhibitor, partial curve] | – |
| Cc1cccc(N2C(=O)NC(=O)/C(=C\c3cc(C)n(-c4sc5c(c4C#N)CCCC5)c3C)C2=O)c1C | – | inactive: -5.99% |
| C[C@@]12CCC3C(CCC4=CC(=O)CC[C@]43C)C1CCC2O (stereo not given in full) | – | inactive: 31% |
| C=CCN1C(=O)/C(=C/c2cccs2)C(=O)NC1=S | inconclusive [inhibitor, single point] | – |
| Oc1ccc(C2NCc3ccccc3-n3cccc32)cc1Cl (stereo not given) | – | inactive: 5.16% |
| CCN(CC)C(=O)c1ccc2c(c1)C1C(Cl)C(Sc3ccccc3[N+](=O)[O-])CC1C(C(=O)O)N2 (stereo not given) | inconclusive [inhibitor, partial curve] | – |
| COc1ccc(CCNCc2ccc(C)s2)cc1OC | – | inactive: 4.86% |
| Cc1nc2ccccc2c(=O)n1-c1ccc(C(=O)O)cc1 | inconclusive [inhibitor, partial curve, poor fit] | – |
| Cc1c2ccncc2c(C)c2c1[nH]c1ccccc12 | inconclusive [inhibitor, partial curve, poor fit] | – |
| O=C1NC(=O)N(c2ccccc2)C(=O)/C1=C/C=C/c1ccco1 | inconclusive [inhibitor, single point] | – |
| CC1CC(C)C(=O)[C@H](C(O)CC2CC(=O)NC(=O)C2)C1 (stereo not given in full) | – | inactive: -8.63% |
| COc1ccc(OCC(=O)N2CCN(C/C=C/c3ccccc3)CC2)cc1 | inconclusive [inhibitor, single point] | – |
| CC(=O)Oc1ccccc1C(=O)Nc1ncc([N+](=O)[O-])s1 | inconclusive [inhibitor, single point] | – |
| ClC1=C(Cl)C(Cl)=C(Cl)C1=C/C=C/c1ccccc1 | active: 11.2 µM | – |
| CC(=O)Oc1c2c(c(CC=C(C)C)c3c1C(=O)C1=CC4CC5C(C)(C)OC(C/C=C(\C)C(=O)O)(C4=O)[C@]15O3)OC(C)(CCC=C(C)C)C=C2 (stereo not given in full) | active: 12.6 µM | – |

| Structure (SMILES) | Potency | activity change, negative = inhibition |
| --- | --- | --- |
| CCOC(=O)C(O)(c1ccc(NC(=O)c2ccc(Cl)c(Cl)c2)cc1)C(F)(F)F (stereo not given) | inconclusive [inhibitor, single point] | – |
| CCCCN(CC)c1c([N+](=O)[O-])cc(C(F)(F)F)cc1[N+](=O)[O-] | inconclusive [inhibitor, partial curve, poor fit] | – |
| CC(C)(C)c1cc([N+](=O)[O-])cc(C(C)(C)C)c1O | – | inactive: -3.82% |
| CCCCCCCCCCCCn1ccc(=N)cc1 | active: 22.4 µM | – |
| CCCCC/C=C\C/C=C\C/C=C\C/C=C\CCCC(=O)Nc1ccc(O)cc1 | inconclusive [inhibitor, partial curve] | – |
| C[C@]12CC[C@@H]3c4ccc(O)cc4[C@@H](O)C[C@H]3[C@@H]1CC[C@@H]2O | inconclusive [inhibitor, single point] | – |
| CN(C)c1ccc(/C=C/C=C/c2sc3ccccc3[n+]2C)cc1 | inconclusive [inhibitor, single point] | – |
| COCCCNC(=O)c1c(N)n(Cc2ccco2)c2nc3ccccc3nc12 | – | inactive: 2.08% [at 57.5 µM] |
| C[C@]12CCC(=O)C=C1CCc1ccc(O)cc12 | – | inactive: 28.3% |
| O=C1NC(=O)N(Cc2ccccc2)C(=O)/C1=C/C=C/c1ccco1 | inconclusive [inhibitor, single point] | – |
| Cc1cc(C)cc(N2C(=O)NC(=O)/C(=C\C=C\c3ccco3)C2=O)c1 | inconclusive [inhibitor, single point] | – |
| CC(C)CCNC(=O)c1cc(C(=O)c2cc(F)ccc2O)cn(CCC(C)C)c1=O | – | inactive: 0.279% |
| OCCN1CCN(CCCN2c3ccccc3Sc3ccc(C(F)(F)F)cc32)CC1 | inconclusive [inhibitor, single point] | – |
| C=C1[C@@H](C)[C@H]2[C@H](Cc3ccccc3)NC(=O)[C@]23OC(=O)/C=C/[C@H](O)CCC[C@@H](C)C/C=C/[C@H]3[C@@H]1O | inconclusive [inhibitor, partial curve] | – |
| O=[N+]([O-])c1cc(F)c(N2CCCCC2)cc1Br | inconclusive [inhibitor, single point] | – |
| CCC(COC(=O)c1cc(OC)c(OC)c(OC)c1)(c1ccccc1)N(C)C (stereo not given) | inconclusive [inhibitor, single point] | – |
| C[C@@H](c1ncncc1F)[C@](O)(Cn1cncn1)c1ccc(F)cc1F | inconclusive [inhibitor, single point] | – |
